Experimental data published in patent publication EP1331219A1.

What was measured:
6H5D1C4 = assay: Competition ELISA, cross reactivity with methamphetamine analogs, antibody 6H5D1C4; type: binding, murine; conditions: Met1 = 100
3A10A6A2 = assay: Competition ELISA, cross reactivity with methamphetamine analogs, antibody 3A10A6A2; type: binding, murine; conditions: Met1 = 100
[1] = test system: murine monoclonal antibody 3A10A6A2 (DASM243-3A10A6A2); type: binding, mouse
[2] = test system: murine monoclonal antibody 6H5D1C4 (DASM243-6H5D1C4); assay: Competition ELISA on BSA-Met1 coated plates: cross reactivity with methamphetamine analogs; type: binding, mouse
[3] = test system: murine monoclonal antibody DASM243-6H5D1C4 (IgG2b), raised against TT-Met1; assay: RIA: affinity determination by competition between labeled and unlabeled metabolite; parameters: species or system mouse; conditions: purified mAb, concentration of unlabeled metabolite which inhibits 50% of the binding between antibody and tracer
[4] = test system: murine monoclonal antibody DASM243-A10A6A2 (IgG1), raised against TT-Met1; assay: as above; parameters: species or system mouse; conditions: purified mAb, concentration of unlabeled metabolite which inhibits 50% of the binding between antibody and tracer

Compound	% inhibition as compared with the antigen Met1 (6H5D1C4) [%]	% inhibition as compared with the antigen Met1 (3A10A6A2) [%]	also measured
COc1ccc(CCN)cc1O [3-hydroxy-4-methoxyphenetylalamine]	1	2	–
CNC(C)Cc1ccc(OC)cc1 (stereo not shown) [4-methoxymetamphetamine]	8	6	–
CSc1ccc(CC(C)N)cc1 (stereo not shown) [4-methylthioamphetamine]	100	–	–
CC(N)Cc1ccccc1 (stereo not shown) [Amphetamine]	1	–	Cross reactivity, % inhibition as compared with the antigen Met1 [1]: 29%; Cross reactivity, % inhibition as compared with the antigen Met1 [2]: 1%
CNC(C)Cc1ccc2c(c1)OCO2 (stereo not shown) [Ecstasy, 3,4-methylenedioxymethamphetamine]	6	–	–
C[C@@H](Cc1ccccc1)N(C)CC(=O)O [Hapten 1 (Met1)]	100	100	–
C[C@@H]([C@@H](O)c1ccccc1)N(C)C [Methyl pseudo ephedrine]	2	–	–
CC(N)C(O)c1ccccc1 (stereo not shown) [Nor-ephedrine]	1	2	–
CNC(C)Cc1ccccc1 (stereo not shown) [methamphetamine oxalate]	–	–	IC50 [3]: 14.4 nM; IC50 [4]: 468 nM

Counter-ions that a name gives are not always drawn.
